Measured values: ChEMBL document CHEMBL5606458, “ASAP - ZIKV NS2B-NS3 protease fluorescence single point” (2024)
Among all 2,700 compounds or so, about 160 (5.9%) showed an effect of 50% or more. The list shows a part of the results.

Molecular target: Nonstructural protein 3 (Zika virus) (UniProt A0A024AXB9)
[1] = PRVABC59, Concentration 50.0 uM, Number of replicates 1.0
[2] = PRVABC59, Concentration 15.0 uM, Number of replicates 1.0
[3] = PRVABC59, Concentration 10.0 uM, Number of replicates 1.0

Chain of UniProt A0A024AXB9 (A0A024AXB9 as listed by the source): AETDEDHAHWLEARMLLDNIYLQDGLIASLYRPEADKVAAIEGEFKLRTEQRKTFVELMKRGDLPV

With `Cn1c(CO)nnc1[C@H]1CCCN(C(=O)C2CCN(c3ccc(C=O)cc3)CC2)C1` the inhibition [1] was 28.4%.

Compound `CN(C)C(=O)N1CCN(C(=O)c2cc(Cl)ccc2NS(=O)(=O)c2ccc(Oc3ccccc3Cl)cc2)CC1` has an inhibition [2] of -1.74%.

For `C[C@H](NC(=O)c1cc(Cl)ccc1NS(=O)(=O)c1ccc(Oc2ccccc2Cl)cc1)c1ccccc1C(F)(F)F`, the inhibition [2] was 42.7%.

`C[C@H](NC(=O)C1CCN(c2ccc(C=O)cc2)CC1)c1ccccc1C(F)(F)F` showed an inhibition [3] of 9.41%.

`NC(=O)c1ccc(Cl)c(NC(=O)C2CCN(c3ccc(C=O)cc3)CC2)c1` gave an inhibition [1] of 4.96%.

`O=C(c1cc(Cl)ccc1NS(=O)(=O)c1ccc(Oc2ccccc2Cl)cc1)N1CCC(N2CCOCC2)CC1` gave an inhibition [2] of 0.883%.

`CS(=O)(=O)N1CCC(NC(=O)C2CCN(c3ccc(C=O)cc3)CC2)CC1` showed an inhibition [1] of 19.7%.

For `Cc1cnccc1NC(=O)c1cc(C2CCC2)n(C)c1C`, the inhibition (PRVABC59, Concentration 49.5 uM, Number of replicates 2.0, Standard deviation 0.5289258793380732 %) was 0.895%, the inhibition (PRVABC59, Concentration 99.01 uM, Number of replicates 2.0, Standard deviation 0.14822405989184065 %) was 2.8% and the inhibition (PRVABC59, Concentration 198.0 uM, Number of replicates 2.0, Standard deviation 0.4618350507387342 %) was 7.47%.

For `O=C(NCc1ccc2ccccc2n1)c1cc(Cl)ccc1NS(=O)(=O)c1ccc(Oc2ccccc2Cl)cc1`, the inhibition [2] was 48.8%.

Compound `O=C(NC[C@H](O)COc1ccccc1)c1cc(Cl)ccc1NS(=O)(=O)c1ccc(Oc2ccccc2Cl)cc1` has an inhibition [2] of 47.3%.

Work on `O=Cc1ccc(N2CCC(C(=O)Nc3ccc(OC(F)(F)F)cc3Cl)CC2)cc1` yielded an inhibition [1] of 22.5%.

In the case of `CCCCCC(=O)N[C@H](C(=O)N1CCC[C@@H](N)C1)c1ccc(OCc2ccccc2)cc1`, the inhibition (PRVABC59, Concentration 49.5 uM, Number of replicates 2.0, Standard deviation 1.2819566042319397 %) is reported as 1.24%, the inhibition (PRVABC59, Concentration 99.01 uM, Number of replicates 2.0, Standard deviation 1.4296380445226269 %) is reported as 2.71% and the inhibition (PRVABC59, Concentration 198.0 uM, Number of replicates 2.0, Standard deviation 1.2245250957414489 %) is reported as 3.4%.

`O=Cc1ccc(N2CCC(C(=O)N3CCS[C@H]3c3ccc([N+](=O)[O-])cc3)CC2)cc1` was tested, and the inhibition [1] was 50%.

`Cc1ccccc1OC1CN(C(=O)c2cc(Cl)ccc2NS(=O)(=O)c2ccc(Oc3ccccc3Cl)cc2)C1` gave an inhibition [2] of -1.98%.

`O=Cc1ccc(N2CCC(C(=O)Nc3ccc([N+](=O)[O-])cc3C(F)(F)F)CC2)cc1` gave an inhibition [1] of 20.2%.

In the case of `O=C(NCc1ccc(Cl)cc1F)c1cc(Cl)ccc1NS(=O)(=O)c1ccc(Oc2ccccc2Cl)cc1`, the inhibition [2] is reported as 29.4%.

In the case of `O=C(NCc1ccc(F)cc1C(F)(F)F)c1cc(Cl)ccc1NS(=O)(=O)c1ccc(Oc2ccccc2Cl)cc1`, the inhibition [2] is reported as 32.6%.

Compound `Cc1cc(CO)c2cccc(Cc3cccc(C(=O)Nc4nonc4C(N)=O)c3)c2n1` has an inhibition (PRVABC59, Concentration 49.95 uM, Number of replicates 2.0, Standard deviation 1.609742570683987 %) of 20.1% and an inhibition (PRVABC59, Concentration 99.9 uM, Number of replicates 2.0, Standard deviation 0.8074931564941592 %) of 55.3%.

Work on `O=C(NCc1ccc(F)c(Br)c1)c1cc(Cl)ccc1NS(=O)(=O)c1ccc(Oc2ccccc2Cl)cc1` yielded an inhibition [2] of 31.4%.

In the case of `CN(C)c1ccc(CNC(=O)C2CCN(c3ccc(C=O)cc3)CC2)cc1`, the inhibition [3] is reported as 25.9%.

With `O=C(Nc1ccc(Cl)c(Cl)c1)c1cc(Cl)ccc1NS(=O)(=O)c1ccc(Oc2ccccc2Cl)cc1` the inhibition [2] was 37.7%.

Work on `Cc1cc(CO)c2cccc(Cc3ccccc3C(=O)N[C@H](Cc3c[nH]cn3)C(=O)O)c2n1` yielded an inhibition (PRVABC59, Concentration 49.95 uM, Number of replicates 2.0, Standard deviation 0.8913883129164283 %) of -9.87% and an inhibition (PRVABC59, Concentration 99.9 uM, Number of replicates 2.0, Standard deviation 0.26741635900501326 %) of -7.8%.

Work on `O=C(NCc1ccc(C(F)(F)F)nc1)c1cc(Cl)ccc1NS(=O)(=O)c1ccc(Oc2ccccc2Cl)cc1` yielded an inhibition [2] of 26.3%.

Work on `CN(C(=O)c1cc(Cl)ccc1NS(=O)(=O)c1ccc(Oc2ccccc2Cl)cc1)[C@H]1CCN(Cc2ccccc2)C1` yielded an inhibition [2] of 18.4%.

`O=Cc1ccc(N2CCC(C(=O)N3CCOCC3)CC2)cc1` gave an inhibition [1] of 23.9%.

With `O=C(NCc1cc(F)c(F)cc1F)c1cc(Cl)ccc1NS(=O)(=O)c1ccc(Oc2ccccc2Cl)cc1` the inhibition [2] was 35.4%.

For `CCCCCC(=O)N[C@H](C(=O)N1CCC[C@@H](CN)C1)c1ccc(OCc2ccccc2)cc1`, the inhibition (PRVABC59, Concentration 49.5 uM, Number of replicates 2.0, Standard deviation 1.3961060118473596 %) was 1.56%, the inhibition (PRVABC59, Concentration 99.01 uM, Number of replicates 2.0, Standard deviation 1.8906395148915127 %) was 3.7% and the inhibition (PRVABC59, Concentration 198.0 uM, Number of replicates 2.0, Standard deviation 0.7113673218088168 %) was 9.74%.

With `O=C(N[C@H]1CCOc2ccc(F)cc21)c1cc(Cl)ccc1NS(=O)(=O)c1ccc(Oc2ccccc2Cl)cc1` the inhibition [2] was 41.9%.

`O=Cc1ccc(N2CCC(C(=O)N3CCN(Cc4ccc(C(F)(F)F)cc4)CC3)CC2)cc1` gave an inhibition [1] of 23.6%.

With `C[C@@H](NC(=O)C1CCN(c2ccc(C=O)cc2)CC1)c1cccc(Br)c1` the inhibition [3] was 5.69%.

With `CNC(=O)c1cc(Cl)ccc1NC(=O)c1ccc(Oc2ccccc2)cc1` the inhibition (PRVABC59, Concentration 49.5 uM, Number of replicates 2.0, Standard deviation 3.5910316959401247 %) was 0.54% and the inhibition (PRVABC59, Concentration 99.01 uM, Number of replicates 2.0, Standard deviation 4.1090108164613115 %) was -4.16%.

With `CCN(CC)S(=O)(=O)c1ccc(NC(=O)C2CCN(c3ccc(C=O)cc3)CC2)cc1` the inhibition [1] was 23.8%.

With `CN(C(=O)C1CCN(c2ccc(C=O)cc2)CC1)C(c1ccccc1)c1ccccc1` the inhibition [1] was 23%.

Compound `CCCN(C(=O)C1CCN(c2ccc(C=O)cc2)CC1)[C@@H](C)C(=O)Nc1ccccc1C` has an inhibition [1] of 11.6%.

Work on `O=Cc1ccc(N2CCC(C(=O)NCc3cccc(Br)c3)CC2)cc1` yielded an inhibition [3] of 15.6%.

`Oc1ccc(CN2CC[C@H](c3c[nH]c4ccccc34)C2)cn1` gave an inhibition (PRVABC59, Concentration 49.5 uM, Number of replicates 2.0, Standard deviation 2.050228303896922 %) of -2.83%, an inhibition (PRVABC59, Concentration 99.01 uM, Number of replicates 2.0, Standard deviation 2.544819210948747 %) of -0.305% and an inhibition (PRVABC59, Concentration 198.0 uM, Number of replicates 2.0, Standard deviation 1.9255234498796154 %) of 4.13%.

`C[C@H]1CN(C(=O)OC(C)(C)C)CCN1C(=O)C1CCN(c2ccc(C=O)cc2)CC1` was tested, and the inhibition [1] was 20.9%.

`CCCCCC(=O)N[C@H](C(=O)Nc1ccc(C(N)=O)cc1)c1ccc(OCc2ccccc2)cc1` showed an inhibition (PRVABC59, Concentration 49.5 uM, Number of replicates 2.0, Standard deviation 0.24855825740099582 %) of 1.21%, an inhibition (PRVABC59, Concentration 99.01 uM, Number of replicates 2.0, Standard deviation 0.07456746879092904 %) of 1.42% and an inhibition (PRVABC59, Concentration 198.0 uM, Number of replicates 2.0, Standard deviation 1.8269031118183072 %) of -0.013%.

Work on `CC(=O)Nc1ccc(C(=O)Nc2cccc3c(CO)cc(C)nc23)cn1` yielded an inhibition (PRVABC59, Concentration 49.95 uM, Number of replicates 2.0, Standard deviation 3.201576439673513 %) of 4.07% and an inhibition (PRVABC59, Concentration 99.9 uM, Number of replicates 2.0, Standard deviation 1.5756980323308272 %) of 14.8%.

`Cc1cc(CO)c2cccc(Cc3ccccc3C(=O)Nc3cc(C)[nH]n3)c2n1` showed an inhibition (PRVABC59, Concentration 49.95 uM, Number of replicates 2.0, Standard deviation 0.3827726205541183 %) of 2.34% and an inhibition (PRVABC59, Concentration 99.9 uM, Number of replicates 2.0, Standard deviation 0.9647966590796107 %) of 6.09%.

For `CN1CCN(c2ccc(CCNc3ccccc3F)cc2)CC1`, the inhibition (PRVABC59, Concentration 49.5 uM, Number of replicates 2.0, Standard deviation 1.9478024425898681 %) was -2.52%, the inhibition (PRVABC59, Concentration 99.01 uM, Number of replicates 2.0, Standard deviation 0.3514217136310701 %) was 0.143% and the inhibition (PRVABC59, Concentration 198.0 uM, Number of replicates 2.0, Standard deviation 1.9900275999452952 %) was -0.82%.

In the case of `Cc1cc(CO)c2cccc(Cc3cccc(C(=O)NCCN4CCOCC4)c3)c2n1`, the inhibition (PRVABC59, Concentration 49.95 uM, Number of replicates 2.0, Standard deviation 1.0591793001105425 %) is reported as -8.9% and the inhibition (PRVABC59, Concentration 99.9 uM, Number of replicates 2.0, Standard deviation 2.5588083400253914 %) is reported as -9.57%.

`O=C(NCc1cccc(F)c1Cl)c1cc(Cl)ccc1NS(=O)(=O)c1ccc(Oc2ccccc2Cl)cc1` showed an inhibition [2] of 25.6%.

For `O=C(NCCN1C(=O)c2ccccc2C1=O)c1cc(Cl)ccc1NS(=O)(=O)c1ccc(Oc2ccccc2Cl)cc1`, the inhibition [2] was 15.8%.

`CC(C)(COC(=O)c1cncc(N2CCOCC2)c1)NC(=O)c1cc(N)cc(Cl)c1` showed an inhibition (PRVABC59, Concentration 49.5 uM, Number of replicates 2.0, Standard deviation 3.2630806613558843 %) of 2.65%, an inhibition (PRVABC59, Concentration 99.01 uM, Number of replicates 2.0, Standard deviation 2.470164076712915 %) of 8.01% and an inhibition (PRVABC59, Concentration 198.0 uM, Number of replicates 2.0, Standard deviation 2.2058581551280056 %) of 13.6%.

For `O=Cc1ccc(N2CCC(C(=O)Nc3cc(Cl)c(O)c(Cl)c3)CC2)cc1`, the inhibition [1] was 98.7%.

Compound `Cc1cc(CO)c2cccc(NC(=O)C3CCN(C)CC3)c2n1` has an inhibition (PRVABC59, Concentration 49.95 uM, Number of replicates 2.0, Standard deviation 2.9039680698338874 %) of 1.89% and an inhibition (PRVABC59, Concentration 99.9 uM, Number of replicates 2.0, Standard deviation 2.0814932575907883 %) of 29.5%.

With `c1ccn2c(CNCc3csc(C4CC4)c3)nnc2c1` the inhibition (PRVABC59, Concentration 49.5 uM, Number of replicates 2.0, Standard deviation 0.9921119894526725 %) was -1.21%, the inhibition (PRVABC59, Concentration 99.01 uM, Number of replicates 2.0, Standard deviation 0.6053564495674263 %) was -2.2% and the inhibition (PRVABC59, Concentration 198.0 uM, Number of replicates 2.0, Standard deviation 0.9097162071661786 %) was -1.78%.

`O=C(Nc1cc(C(F)(F)F)ccc1N1CCCC1)c1cc(Cl)ccc1NS(=O)(=O)c1ccc(Oc2ccccc2Cl)cc1` gave an inhibition [2] of 27.7%.

In the case of `O=Cc1ccc(N2CCC(C(=O)NCCCOCCOCCO)CC2)cc1`, the inhibition [1] is reported as 22.5%.

`O=C(c1cc(Cl)ccc1NS(=O)(=O)c1ccc(Oc2ccccc2Cl)cc1)N1CC=C(c2ccccc2)CC1` gave an inhibition [2] of -1.1%.

`O=C(NCCc1cncnc1)c1cn([C@H]2CCCNC2)nn1` gave an inhibition (PRVABC59, Concentration 49.5 uM, Number of replicates 2.0, Standard deviation 1.9755922648176436 %) of -1.34%, an inhibition (PRVABC59, Concentration 99.01 uM, Number of replicates 2.0, Standard deviation 2.2473128259458055 %) of -2.27% and an inhibition (PRVABC59, Concentration 198.0 uM, Number of replicates 2.0, Standard deviation 2.3760225788757383 %) of -2.12%.

Compound `CCCCCC(=O)N[C@@H](CC(C)C)C(=O)NCc1cccc(CN)c1` has an inhibition (PRVABC59, Concentration 49.5 uM, Number of replicates 2.0, Standard deviation 0.4619563493687485 %) of -1.54%, an inhibition (PRVABC59, Concentration 99.01 uM, Number of replicates 2.0, Standard deviation 0.9009194855323789 %) of -2.09% and an inhibition (PRVABC59, Concentration 198.0 uM, Number of replicates 2.0, Standard deviation 0.03971564970139162 %) of -1.7%.
